Measured values: patent publication US20070219159A1, “CYCLODEXTRIN COMPOSITIONS AND METHODS OF TREATING VIRAL INFECTIONS” (priority 2002, published 2007)

Test system: HSV-1 strain KOS1.1
Assay: CPE reduction assay in Vero cells, HSV-1
Type: cell-based
Conditions: HSV-1 KOS1.1, MOI 2; β-CD 4.5 and 4.95 mg/ml

For `OC[C@H]1O[C@@H]2O[C@H]3[C@H](O)[C@@H](O)[C@@H](O[C@H]4[C@H](O)[C@@H](O)[C@@H](O[C@H]5[C@H](O)[C@@H](O)[C@@H](O[C@H]6[C@H](O)[C@@H](O)[C@@H](O[C@H]7[C@H](O)[C@@H](O)[C@@H](O[C@H]8[C@H](O)[C@@H](O)[C@@H](O[C@H]1[C@H](O)[C@H]2O)O[C@@H]8CO)O[C@@H]7CO)O[C@@H]6CO)O[C@@H]5CO)O[C@@H]4CO)O[C@@H]3CO` [BCD, β-cyclodextrin], the “antiviral protection of Vero cells, sub-optimal concentrations alone” value was “marginal antiviral protection”.
